Measured values reported in PubChem BioAssay AID1918943 (Molecular Pharmacology Branch, DTP, NCI, 2023).
Certain results were filed several times, with different values. The other results are left out here. An entry can have further records. The records of an entry are repeated measurements (runs, samples, wells, individuals or studies).

Tested on: 855422-203-R-J1-PDC complex spheroid viability
Test: Anticancer human tumor 855422-203-R-J1-PDC patient-derived bladder carcinoma cell line growth inhibition
Details: stronger effect = lower value
Excerpt: Multicellular complex tumor spheroid response to LSD1 Inhibitor Iadademstat in combination with a variety of drugs and investigational agents in selected tumor cell lines
The current study was undertaken to assess response to LSD1 inhibitors in combination with standard-of-care drugs and investigational agents in solid tumor complex spheroid models as well as in the K-562 leukemia. Complex spheroids include a stromal component modeled by human endothelial cells (HUVEC) and fibroblasts modeled by human mesenchymal stem cells (MSCs). The concentration ranges selected for each drug and investigational agent were based upon clinically achievable concentrations if the clinical Cmax of the agent was known.
Compounds. The drugs and investigational agents used in this study are listed on Table 1. All of the agents used, including staurosporine (NSC755774) and gemcitabine (NSC613327), were obtained from the Developmental Therapeutics Program, NCI. FDA-approved anticancer drugs are available from the NCI at http://dtp.nci.nih.gov/branches/dscb/oncology_drugset_explanation.html. Drugs and investigational agents were >95% pure by proton nuclear magnetic resonance (NMR) and liquid chromatography/mass spectrometry (LC/MS). […] If the clinical Cmax for an agent had not been determined, the highest concentration tested was 10 microM. […]
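Note: drug exposure lasted 7 days starting on day 3 after seeding; luminescence viability as percent of DMSO vehicle wells = 100%.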

With `NC1CC1c1ccc(-c2cccc(O)c2)cc1` (configuration not stated) the viability, T/C (compound alone 3.16 µM) was 82.6, 84, 93, 88.7, 83.7, 96.3, 85.5, 87.7, 84.7, 87.8, 94, 90.4, 94.6, 87, 88.2, 109, 86.5, 91.4, 86.7, 91.7, 83, 81.5, 89.4, 85, 92.3% and the viability, T/C (compound alone 10 µM) was 81, 74.3, 97, 81.8, 78.8, 94.1, 80.7, 88.1, 82.9, 90.6, 89.5, 97.3, 85.1, 81.3, 83, 114, 84.2, 87.3, 78.9, 94.2, 76.9, 91.5, 85.3, 95.5%.
